# Measured values taken from PubChem BioAssay AID540317 (National Center for Advancing Translational Sciences (NCATS), 2011).
# The campaign covered roughly 390,000 compounds. About 2,200 (0.56%) were called active. The inconclusive results got no clear call from the source; some entries with a clear call stand among them for comparison. Calls come from the whole dose curve; as a rule, active = well fitted inhibition curve with a large enough effect; inconclusive = small, poorly fitted or top-dose-only effect; inactive = no such curve, though single readings can be large or run the other way. Where the call is inconclusive, the potency comes from a doubtful curve fit.
# Target: Chromobox protein homolog 1 (Homo sapiens) (UniProt P83916)
# Assay: HTS for Inhibitors of HP1-beta Chromodomain Interactions with Methylated Histone Tails; note: nearly all actives have a fitted effect of over 70% in size
# Conditions: AlphaScreen HP1-beta / biotin-H3K9me3 peptide binding; series mostly up to 114 µM
# Method in brief: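 AlphaScreen: HP1-beta (50 nM) preformed 30 min with biotin-H3(1-18)K9me3 peptide (50 nM) in PBS pH 7.4, 0.01% Tween-20. Compound added for 30 min at RT, then streptavidin donor/nickel chelate acceptor beads (10 ug/mL) for 30 min.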
# Potency is the fitted concentration of half-maximal effect; tags give direction and shape of the fitted curve.
# Sequence of UniProt P83916 (P83916 whole entry, looked up): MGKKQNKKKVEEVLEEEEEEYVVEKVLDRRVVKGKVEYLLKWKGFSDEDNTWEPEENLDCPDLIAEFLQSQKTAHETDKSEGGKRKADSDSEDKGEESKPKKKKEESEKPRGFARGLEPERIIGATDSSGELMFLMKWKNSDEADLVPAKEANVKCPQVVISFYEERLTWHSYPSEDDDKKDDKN
row,Structure (SMILES),Potency
1,c1ccc(CN2CCN(Cc3ccc4ccccc4c3)CC2)cc1,"inconclusive: 20 µM [inhibitor, full curve]"
2,CC1CCCN(CC(=O)N2CCCc3ccccc32)C1 (stereo not drawn),inactive
3,COc1ccccc1CC(=O)Nc1ccc2c(c1)OC1(CCCC1)O2,"inconclusive: 35.5 µM [inhibitor, partial curve, poor fit]"
4,CCOc1cccc(OCCOCCN2CCCC2)c1,"inconclusive: 44.7 µM [inhibitor, partial curve, poor fit]"
5,CCCCCn1c(=O)c(C(=O)Nc2ccccc2N)c(O)c2ccccc21,inactive
6,CCCNC(=O)N1[C@H]2CC[C@@H]1C(C(=O)OC)=C(c1ccc(F)cc1F)C2,inactive
7,CCOc1cccc(CNCCc2c(C)[nH]c3ccc(OC(F)(F)F)cc23)c1O,"inconclusive: 14.1 µM [inhibitor, full curve]"
8,Oc1ccc(C2NCc3ccccc3-n3cccc32)cc1Cl (stereo not drawn),"inconclusive: 70.8 µM [inhibitor, single point]"
9,CCN(CC)C(=O)c1ccc2c(c1)C1C(Cl)C(Sc3ccccc3[N+](=O)[O-])CC1C(C(=O)O)N2 (stereo not drawn),active: 11.2 µM
10,O=C1CN(C(=O)CN2CCCCC2)C(c2ccccc2)c2cc(Br)ccc2N1 (stereo not drawn),"inconclusive: 35.5 µM [inhibitor, partial curve, poor fit]"
11,O=C(NCc1ccccc1)c1cccc(Nc2nc3ccccc3n3nnnc23)c1,"inconclusive: 10 µM [inhibitor, partial curve, poor fit]"
12,COCOC1CCC2C3CCC4=CC(=O)CCC4=C3C=CC12C (stereo not drawn),"inconclusive: 79.4 µM [inhibitor, single point]"
13,COc1ccccc1NS(=O)(=O)c1cc(NC(=O)c2ccc(Cl)nc2)ccc1N1CCCC1,"inconclusive: 8.91 µM [inhibitor, full curve, poor fit]"
14,COC(=O)C1=C(c2ccc(F)cc2OCc2ccccc2)C[C@@H]2CC[C@H]1N2C(=O)NCc1ccc2c(c1)OCO2,inactive
15,CCOC(=O)C1CCCN(c2ccc([N+](=O)[O-])c3nonc23)C1 (stereo not drawn),inactive
16,C=CCNC(=S)/N=C/c1c(O)[nH]c(=O)[nH]c1=O,inactive
17,Cc1ccc(C)c(OCC(=O)N2CCN(Cc3ccc4c(c3)OCO4)CC2)c1,inactive
18,Cc1ccc(/C=C2\C(=O)NC(=S)N(c3cccc(F)c3)C2=O)o1,"inconclusive: 25.1 µM [inhibitor, full curve]"
19,COC1C(OC(=O)c2ccc(C)[nH]2)C(O)C(Oc2ccc3c(O)c(NC(=O)c4ccc(O)c(CC=C(C)C)c4)c(=O)oc3c2Cl)OC1(C)C (stereo not drawn),"inconclusive: 44.7 µM [inhibitor, partial curve]"
20,CCn1cc(C=C2C(=O)N(C)C(=O)N(C)C2=O)c2ccccc21,inactive
21,COc1ccc(/C=C/c2nc3ccccc3c(=O)n2-c2ccc(C)cc2)cc1O,inactive
22,COC(=O)C1=C(c2cc3ccccc3s2)C[C@@H]2CC[C@H]1N2C(=O)NCc1ccco1,"inconclusive: 56.2 µM [inhibitor, partial curve]"

row,Structure (SMILES),Potency
1,O=C1NC(=O)N(CC2CCCO2)C(=O)/C1=C/c1cccs1 (stereo not drawn),inactive
2,CCN(CC)S(=O)(=O)c1cccc(N=Nc2c(O)n(CC)c(=S)n(CC)c2=O)c1,"inconclusive: 11.2 µM [inhibitor, partial curve]"
3,O=C1NC(=O)N(Cc2ccccc2)C(=O)/C1=C\c1ccco1,"inconclusive: 70.8 µM [inhibitor, partial curve]"
4,CN1C(=O)N(C)C(=O)C2(Cc3c(ccc4ccccc34)N(C)C2)C1=O,"inconclusive: 44.7 µM [inhibitor, partial curve, poor fit]"
5,Clc1ccccc1CN1CCN(c2cccc3[nH]ccc23)CC1,"inconclusive: 28.2 µM [inhibitor, full curve]"
6,COc1ccc(CCNCc2ccc(Br)cc2)cc1OC,"inconclusive: 56.2 µM [inhibitor, single point]"
7,COc1ccc(OCC(=O)N2CCN(C3CCC(c4ccccc4)CC3)CC2)cc1 (stereo not drawn),"inconclusive: 22.4 µM [inhibitor, full curve]"
8,COc1ccc2[nH]c(C)c(CCNCc3cc(OC)c4c(c3)OCO4)c2c1,"inconclusive: 35.5 µM [inhibitor, partial curve]"
9,CCC(CO)(C(=O)OC1C[N+]2(C)CCC1CC2)c1ccccc1 (stereo not drawn),"inconclusive: 89.1 µM [inhibitor, single point]"
10,COC(=O)c1c(C)n(Cc2ccc3c(c2)OCO3)c2ccc(O)cc12,inactive
11,CSc1ccc(C(=O)C2CCCN(Cc3cc4ccccc4[nH]3)C2)cc1 (stereo not drawn),"inconclusive: 7.94 µM [inhibitor, full curve, poor fit]"
12,C=CC[N+]1(C)CC[C@]23c4c5ccc(O)c4O[C@H]2C(=O)CC[C@@]3(O)[C@H]1C5 (stereo partly drawn),"inconclusive: 70.8 µM [inhibitor, single point]"
13,Cc1cc(C)n2nc(SC(C)C(=O)N3CCC4(CC3)OCCO4)nc2n1 (stereo not drawn),inactive
14,O=[N+]([O-])c1ccccc1CNCCc1c[nH]c2ccccc12,"inconclusive: 70.8 µM [inhibitor, single point]"
15,CCOC(=O)C1=CC(=C2C(=O)N(CC)C(=S)N(CC)C2=O)c2ccccc2O1,"inconclusive: 39.8 µM [inhibitor, partial curve, poor fit]"
16,O=C1NC(=O)N(Cc2ccco2)C(=O)/C1=C/C=C/c1ccco1,active: 11.2 µM
17,CC(C)c1ccc(N2C(=O)NC(=O)/C(=C\c3cnc(-c4ccccc4)nc3)C2=O)cc1,"inconclusive: 70.8 µM [inhibitor, partial curve]"
18,CNCC(O)c1cccc(OC(=O)c2ccccc2C)c1 (stereo not drawn),inactive
19,CCN(CCCl)c1cc(CN(C)C)cc(NC(=O)c2ccc(C(=O)Nc3cc(CN(C)C)cc(N(CC)CCCl)c3)cc2)c1,active: 10 µM
20,O=[N+]([O-])c1cc(S(=O)(=O)c2ccc(O)c([N+](=O)[O-])c2)ccc1O,"inconclusive: 56.2 µM [inhibitor, partial curve, poor fit]"
21,COc1cc(OC)c(OC)cc1CN1CCN(C(=O)COc2ccc3ccccc3c2)CC1,active: 50.1 µM
